{
  "source": "the supplement of paper PMC3334620",
  "note": "Over roughly 33,000 sequences, “E-score (-0.5 to 0.5)” has its median near -0.032; the highest 2% begin near 0.36. Some of the results follow.",
  "data": [
    {"molecular_target": "T1, Sko1 (UniProt Q02100)", "T1 sequence": "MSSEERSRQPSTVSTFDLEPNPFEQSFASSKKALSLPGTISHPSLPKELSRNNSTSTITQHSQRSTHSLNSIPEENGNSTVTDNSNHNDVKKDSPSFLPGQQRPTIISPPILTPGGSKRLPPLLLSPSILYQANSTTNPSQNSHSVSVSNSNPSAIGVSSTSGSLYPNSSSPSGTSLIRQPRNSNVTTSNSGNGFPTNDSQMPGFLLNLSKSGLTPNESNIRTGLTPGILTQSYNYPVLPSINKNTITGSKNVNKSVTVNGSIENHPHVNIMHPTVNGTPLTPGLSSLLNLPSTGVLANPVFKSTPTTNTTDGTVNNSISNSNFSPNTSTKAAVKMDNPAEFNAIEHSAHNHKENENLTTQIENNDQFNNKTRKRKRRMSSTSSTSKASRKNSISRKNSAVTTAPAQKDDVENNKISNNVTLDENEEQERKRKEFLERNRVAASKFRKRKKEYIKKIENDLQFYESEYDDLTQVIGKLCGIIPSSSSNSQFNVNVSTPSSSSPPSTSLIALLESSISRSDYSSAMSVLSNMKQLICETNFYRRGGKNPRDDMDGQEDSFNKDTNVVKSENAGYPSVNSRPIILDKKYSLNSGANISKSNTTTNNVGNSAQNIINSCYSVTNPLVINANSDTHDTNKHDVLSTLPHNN", "assay": "PBM E-score (8-mer binding enrichment) (E-score (-0.5 to 0.5)); higher = stronger / more preferred TF binding; most listed sequences are background and not binding sites", "conditions": "protein concentration: 200 nM; construct: GST-full length", "in_short": "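GST-tagged yeast TFs (full-length or DNA-binding domain) were made by PURExpress in vitro transcription/translation and applied at about 100-200 nM to universal all-10-mer Agilent arrays. The arrays were made double-stranded by primer extension, on fresh or once-stripped slides. Bound protein was detected with fluorescent anti-GST, and scans were normalised with masliner. Each ungapped eight-base word, pooled with its reverse complement, received an E-score (modified Wilcoxon-Mann-Whitney statistic) from the Universal PBM Analysis Suite.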", "values": [
      {"sequence": "GGATGATA", "PBM E-score": 0.0855},
      {"sequence": "CTGGCCAG", "PBM E-score": -0.0607},
      {"sequence": "ACGAGATG", "PBM E-score": 0.0948},
      {"sequence": "ATGCGATG", "PBM E-score": -0.179},
      {"sequence": "GCGTAAAA", "PBM E-score": 0.279},
      {"sequence": "GCTCTCTA", "PBM E-score": -0.189},
      {"sequence": "CGTTGAAA", "PBM E-score": 0.0808},
      {"sequence": "CTTTTAGC", "PBM E-score": -0.0732},
      {"sequence": "TCACCAAA", "PBM E-score": 0.218},
      {"sequence": "CCACTGAA", "PBM E-score": -0.0966},
      {"sequence": "CATTAGCC", "PBM E-score": -0.188},
      {"sequence": "AGCCGACC", "PBM E-score": -0.365},
      {"sequence": "AGAGGGAA", "PBM E-score": -0.205},
      {"sequence": "CCGCAACC", "PBM E-score": -0.2},
      {"sequence": "AATCGTTG", "PBM E-score": 0.0973},
      {"sequence": "CGGCAGAG", "PBM E-score": -0.362},
      {"sequence": "AAGTCATG", "PBM E-score": 0.0701},
      {"sequence": "ACACATTC", "PBM E-score": -0.111},
      {"sequence": "CACTGAGA", "PBM E-score": -0.163},
      {"sequence": "AAATGAGA", "PBM E-score": 0.0455},
      {"sequence": "ACCTGAAG", "PBM E-score": -0.223},
      {"sequence": "GCGGACGA", "PBM E-score": -0.196},
      {"sequence": "AGCGCGTA", "PBM E-score": 0.281},
      {"sequence": "AAATAGGT", "PBM E-score": 0.0972},
      {"sequence": "AGTAAACT", "PBM E-score": 0.0547},
      {"sequence": "ATCCCGAA", "PBM E-score": -0.0492},
      {"sequence": "TAAATTGA", "PBM E-score": 0.204},
      {"sequence": "AGAGCATG", "PBM E-score": -0.147},
      {"sequence": "AATGTTCT", "PBM E-score": 0.112},
      {"sequence": "GTAGTCTA", "PBM E-score": 0.197},
      {"sequence": "CTACTAAG", "PBM E-score": -0.133},
      {"sequence": "TGCATACA", "PBM E-score": 0.162},
      {"sequence": "CGGTACTA", "PBM E-score": -0.112},
      {"sequence": "CGGTCCTC", "PBM E-score": -0.296},
      {"sequence": "CAGGTGAC", "PBM E-score": 0.225},
      {"sequence": "GGTCATGA", "PBM E-score": 0.111},
      {"sequence": "CGAAACTA", "PBM E-score": 0.0675},
      {"sequence": "CCTCGCGC", "PBM E-score": -0.173},
      {"sequence": "AGTGCAAT", "PBM E-score": -0.122},
      {"sequence": "ATCTAGAG", "PBM E-score": -0.0987},
      {"sequence": "AGGCCCCG", "PBM E-score": -0.372},
      {"sequence": "ATCTATGA", "PBM E-score": 0.169},
      {"sequence": "ATACCTGA", "PBM E-score": 0.0856},
      {"sequence": "CTCATAAA", "PBM E-score": 0.0771},
      {"sequence": "CCTAGACA", "PBM E-score": -0.254},
      {"sequence": "CGATTTGC", "PBM E-score": -0.102},
      {"sequence": "AGAGCTCA", "PBM E-score": -0.136},
      {"sequence": "ACCTCATA", "PBM E-score": 0.269},
      {"sequence": "ATGTGTAG", "PBM E-score": -0.0138},
      {"sequence": "CTCGTGTA", "PBM E-score": -0.0261},
      {"sequence": "GGAGGTAA", "PBM E-score": -0.0922},
      {"sequence": "GCGATCGC", "PBM E-score": 0.0254},
      {"sequence": "GGCTTGAC", "PBM E-score": -0.0288},
      {"sequence": "ACAATGAA", "PBM E-score": 0.1},
      {"sequence": "AGCCGGTA", "PBM E-score": -0.186},
      {"sequence": "CGCTGTGA", "PBM E-score": 0.0399},
      {"sequence": "CCCCCCAG", "PBM E-score": -0.399},
      {"sequence": "GATTACAA", "PBM E-score": 0.201},
      {"sequence": "GGGACAGA", "PBM E-score": -0.242},
      {"sequence": "ATTGGTCG", "PBM E-score": 0.0274},
      {"sequence": "TCAAGCGA", "PBM E-score": 0.00776},
      {"sequence": "CGCGACGC", "PBM E-score": -0.00271},
      {"sequence": "CGTACTCA", "PBM E-score": 0.203},
      {"sequence": "CAAGACAC", "PBM E-score": 0.0807},
      {"sequence": "CCGGCGCA", "PBM E-score": -0.151},
      {"sequence": "CTTGCAAG", "PBM E-score": -0.148},
      {"sequence": "ATAGCGTA", "PBM E-score": 0.336},
      {"sequence": "ATATGTTA", "PBM E-score": 0.122},
      {"sequence": "TACCCTGA", "PBM E-score": -0.126},
      {"sequence": "CTGACGAC", "PBM E-score": 0.342},
      {"sequence": "ACAGCATC", "PBM E-score": 0.036},
      {"sequence": "AATGAGGA", "PBM E-score": -0.158},
      {"sequence": "CTGGACAG", "PBM E-score": -0.26},
      {"sequence": "CCAATAGC", "PBM E-score": -0.187},
      {"sequence": "CACACCTC", "PBM E-score": -0.177},
      {"sequence": "ATTAATTG", "PBM E-score": 0.22},
      {"sequence": "ACGTTCCC", "PBM E-score": 0.103},
      {"sequence": "AGAATCTA", "PBM E-score": 0.0424},
      {"sequence": "AACTTGTG", "PBM E-score": 0.113},
      {"sequence": "CGTCCAAA", "PBM E-score": 0.182},
      {"sequence": "ATGGGAAG", "PBM E-score": -0.226},
      {"sequence": "ATTTTAGG", "PBM E-score": 0.175},
      {"sequence": "AAACGATA", "PBM E-score": 0.168},
      {"sequence": "CACCGACA", "PBM E-score": -0.084},
      {"sequence": "AGAGTGAG", "PBM E-score": -0.0544},
      {"sequence": "CGGAGGAC", "PBM E-score": -0.2}
    ]}
  ]
}
